Each molecule was assayed against T1, biotinylated truncated STAT6 (123-632)-avi (Homo sapiens, UniProt P42226) (assay: Homogenous Time-Resolved Fluorescence (HTRF) binding assay). Conditions: 0.15 nM biotinylated truncated STAT6 (123-632)-avi, 20 nM fluorescein-labeled probe, 30 minutes at room temperature.
T1 sequence (P42226 123-632 limits assumed): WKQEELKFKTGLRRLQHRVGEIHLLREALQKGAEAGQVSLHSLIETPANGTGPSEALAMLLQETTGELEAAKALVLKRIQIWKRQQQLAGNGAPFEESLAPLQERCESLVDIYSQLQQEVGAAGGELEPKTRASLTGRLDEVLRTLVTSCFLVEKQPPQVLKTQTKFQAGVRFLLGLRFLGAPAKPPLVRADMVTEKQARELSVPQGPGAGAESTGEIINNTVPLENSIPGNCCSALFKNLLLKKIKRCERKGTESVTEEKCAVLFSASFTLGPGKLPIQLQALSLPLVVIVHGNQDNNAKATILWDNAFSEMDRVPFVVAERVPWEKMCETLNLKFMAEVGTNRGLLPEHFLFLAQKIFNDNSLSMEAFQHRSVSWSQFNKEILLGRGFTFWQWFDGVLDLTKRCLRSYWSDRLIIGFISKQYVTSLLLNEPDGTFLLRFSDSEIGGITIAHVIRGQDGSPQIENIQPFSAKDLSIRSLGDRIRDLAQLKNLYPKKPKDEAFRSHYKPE
Work on Cc1c[nH]c2ncc(-c3cc(C4=CCCN(C(=O)CCn5ccnn5)C4)c(F)c4cc(C(=O)N(C)C)oc34)cc12 [Example I-1100] yielded an IC50 of under 100 nM.
Cc1c[nH]c2ncc(-c3cc(C4=CCCN(C(=O)CCn5ccnn5)C4)c(F)c4[nH]c(C(=O)N(C)C)cc34)cc12 [Example I-1101] showed an IC50 of under 100 nM.
In the case of COc1ccccc1-c1cc(C2=CCCN(C(=O)CCn3ccnn3)C2)cc2cc(C(=O)N(C)C)oc12 [Example I-1103], the IC50 is reported as under 100 nM.
COc1ccccc1-c1cc(C2=CCCN(C(C)=O)C2)c(F)c2cc(C(=O)N(C)C)oc12 [Example I-1104] showed an IC50 of 100 to 1000 nM.
With COc1cccc(F)c1-c1cc(C2=CCCN(C(C)=O)C2)c(F)c2cc(C(=O)N(C)C)oc12 [Example I-1105] the IC50 was 100 to 1000 nM.
For COc1ccccc1-c1cc(C2=CCCN(C(C)=O)C2)c(F)c2sc(C(=O)N3CCN(c4ncccc4OC)CC3)cc12 [Example I-1106], the IC50 was 1000 to 10000 nM.
Molecule COc1cc(F)ccc1-c1cc(C2=CCCN(C(=O)CCn3ccnn3)C2)c(F)c2[nH]c(C(=O)N3CCN(c4ccc(F)c(OC)n4)CC3)cc12 [Example I-1107] has an IC50 of 100 to 1000 nM.
Molecule CCOc1ccncc1-c1cc(C2=CCCN(C(=O)CCn3ccnn3)C2)c(F)c2[nH]c(C(=O)N3CCN(c4ncncc4OC)CC3)cc12 [Example I-1108] has an IC50 of under 100 nM.
COc1cccc(N2CCN(C(=O)c3cc4c(-c5ccc(N(C)C)cc5OC)cc(C5=CCCN(C(=O)CCn6ccnn6)C5)c(F)c4[nH]3)CC2)n1 [Example I-1109] gave an IC50 of under 100 nM.
COc1cc(F)cnc1N1CCN(C(=O)c2cc3c(C=CC(C)(C)O)cc(C4=CCCN(C(=O)CCn5ccnn5)C4)c(F)c3[nH]2)CC1 [Example I-1110] gave an IC50 of under 100 nM.
Molecule COc1cc(F)cnc1N1CCN(C(=O)c2cc3c(-c4ccc(OC5CCOCC5)cc4)cc(C4=CCCN(C(=O)CCn5ccnn5)C4)c(F)c3[nH]2)CC1 [Example I-1111] has an IC50 of under 100 nM.
COCCCOc1ccc(-c2cc(C3=CCCN(C(=O)CCn4ccnn4)C3)c(F)c3[nH]c(C(=O)N4CCN(c5ncc(F)cc5OC)CC4)cc23)cc1 [Example I-1112] showed an IC50 of under 100 nM.
COc1cc(F)cnc1N1CCN(C(=O)c2cc3c(-c4ccn(-c5ccccc5)n4)cc(C4=CCCN(C(=O)CCn5ccnn5)C4)c(F)c3[nH]2)CC1 [Example I-1113] was tested, and the IC50 was 100 to 1000 nM.
Molecule COc1cc(F)cnc1N1CCN(C(=O)c2cc3c(-c4ccc(-n5nc(C)cc5C)cc4)cc(C4=CCCN(C(=O)CCn5ccnn5)C4)c(F)c3[nH]2)CC1 [Example I-1114] has an IC50 of under 100 nM.
COc1cc(F)cnc1N1CCN(C(=O)c2cc3c(-c4cnn(Cc5ccccc5)c4)cc(C4=CCCN(C(=O)CCn5ccnn5)C4)c(F)c3[nH]2)CC1 [Example I-1115] was tested, and the IC50 was under 100 nM.
In the case of COc1cc(F)cnc1N1CCN(C(=O)c2cc3c(C4=CCN(c5ccccn5)CC4)cc(C4=CCCN(C(=O)CCn5ccnn5)C4)c(F)c3[nH]2)CC1 [Example I-1117], the IC50 is reported as under 100 nM.
COc1cc(F)cnc1N1CCN(C(=O)c2cc3c(-c4ccc(-c5ccncc5)cc4)cc(C4=CCCN(C(=O)CCn5ccnn5)C4)c(F)c3[nH]2)CC1 [Example I-1118] gave an IC50 of under 100 nM.
For COc1cc(F)cnc1N1CCN(C(=O)c2cc3c(-c4cccc5cnccc45)cc(C4=CCCN(C(=O)CCn5ccnn5)C4)c(F)c3[nH]2)CC1 [Example I-1119], the IC50 was under 100 nM.
Molecule COc1cc(F)cnc1N1CCN(C(=O)c2cc3c(-c4ccc(-c5ccccn5)cc4)cc(C4=CCCN(C(=O)CCn5ccnn5)C4)c(F)c3[nH]2)CC1 [Example I-1120] has an IC50 of under 100 nM.
COc1cc(F)cnc1N1CCN(C(=O)c2cc3c(-c4ccc(C(C)N5CCOCC5)cc4)cc(C4=CCCN(C(=O)CCn5ccnn5)C4)c(F)c3[nH]2)CC1 (centres unmarked) [Example I-1121] gave an IC50 of under 100 nM.
COc1cc(F)cnc1N1CCN(C(=O)c2cc3c(-c4ccc(CN5CCOCC5)cc4)cc(C4=CCCN(C(=O)CCn5ccnn5)C4)c(F)c3[nH]2)CC1 [Example I-1122] gave an IC50 of under 100 nM.
Work on COc1cc(F)cnc1N1CCN(C(=O)c2cc3c(-c4ccccc4CN4CCOCC4)cc(C4=CCCN(C(=O)CCn5ccnn5)C4)c(F)c3[nH]2)CC1 [Example I-1123] yielded an IC50 of under 100 nM.
For COc1cc(F)cnc1N1CCN(C(=O)c2cc3c(-c4ccc(NC5CCCC5)cc4)cc(C4=CCCN(C(=O)CCn5ccnn5)C4)c(F)c3[nH]2)CC1 [Example I-1124], the IC50 was 100 to 1000 nM.
CCOCc1cc(F)ccc1-c1cc(C2=CCCN(C(=O)CCn3ccnn3)C2)c(F)c2[nH]c(C(=O)N3CCN(c4ncc(F)cc4OC)CC3)cc12 [Example I-1125] gave an IC50 of under 100 nM.
Molecule COc1cc(F)cnc1N1CCN(C(=O)c2cc3c(C4=CCCOC4)cc(C4=CCCN(C(=O)CCn5ccnn5)C4)c(F)c3[nH]2)CC1 [Example I-1126] has an IC50 of under 100 nM.
CCCCOc1ccc(-c2cc(C3=CCCN(C(=O)CCn4ccnn4)C3)c(F)c3[nH]c(C(=O)N4CCN(c5ncc(F)cc5OC)CC4)cc23)cc1 [Example I-1127] showed an IC50 of 100 to 1000 nM.
COc1cccc(/C=C/c2cc(C3=CCCN(C(=O)CCn4ccnn4)C3)c(F)c3[nH]c(C(=O)N4CCN(c5ncc(F)cc5OC)CC4)cc23)c1 [Example I-1129] showed an IC50 of under 100 nM.
Molecule COc1ccccc1/C=C/c1cc(C2=CCCN(C(=O)CCn3ccnn3)C2)c(F)c2[nH]c(C(=O)N3CCN(c4ncc(F)cc4OC)CC3)cc12 [Example I-1130] has an IC50 of 100 to 1000 nM.
For COc1cc(F)cnc1N1CCN(C(=O)c2cc3c(C4=CCN(C5CC5)CC4)cc(C4=CCCN(C(=O)CCn5ccnn5)C4)c(F)c3[nH]2)CC1 [Example I-1131], the IC50 was under 100 nM.
With COc1cc(F)cnc1N1CCN(C(=O)c2cc3c(C4=CCN(Cc5ccccc5)CC4)cc(C4=CCCN(C(=O)CCn5ccnn5)C4)c(F)c3[nH]2)CC1 [Example I-1132] the IC50 was under 100 nM.
COc1cc(F)cnc1N1CCN(C(=O)c2cc3c(C4=CCN(C(C)C)CC4)cc(C4=CCCN(C(=O)CCn5ccnn5)C4)c(F)c3[nH]2)CC1 [Example I-1133] showed an IC50 of under 100 nM.
COc1cc(F)cnc1N1CCN(C(=O)c2cc3c(C4=CCCC4)cc(C4=CCCN(C(=O)CCn5ccnn5)C4)c(F)c3[nH]2)CC1 [Example I-1134] showed an IC50 of under 100 nM.
COc1cc(F)cnc1N1CCN(C(=O)c2cc3c(C4=CCCCC4)cc(C4=CCCN(C(=O)CCn5ccnn5)C4)c(F)c3[nH]2)CC1 [Example I-1135] was tested, and the IC50 was under 100 nM.
COc1cc(F)cnc1N1CCN(C(=O)c2cc3c(-c4ccc(=O)n(Cc5ccccc5)c4)cc(C4=CCCN(C(=O)CCn5ccnn5)C4)c(F)c3[nH]2)CC1 [Example I-1136] was tested, and the IC50 was under 100 nM.
For COc1cc(F)cnc1N1CCN(C(=O)c2cc3c(-c4ccc(CN5CCOCC5)nc4)cc(C4=CCCN(C(=O)CCn5ccnn5)C4)c(F)c3[nH]2)CC1 [Example I-1137], the IC50 was under 100 nM.
COc1cc(F)cnc1N1CCN(C(=O)c2cc3c(-c4ccc(N5C[C@@H](C)O[C@@H](C)C5)nc4)cc(C4=CCCN(C(=O)CCn5ccnn5)C4)c(F)c3[nH]2)CC1 [Example I-1138] was tested, and the IC50 was under 100 nM.
Work on COc1cc(F)cnc1N1CCN(C(=O)c2cc3c(-c4ccc(C#N)c(C)c4)cc(C4=CCCN(C(=O)CCn5ccnn5)C4)c(F)c3[nH]2)CC1 [Example I-1139] yielded an IC50 of under 100 nM.
Molecule COc1cc(F)cnc1N1CCN(C(=O)c2cc3c(-c4ccc(C5(C#N)CC5)cc4)cc(C4=CCCN(C(=O)CCn5ccnn5)C4)c(F)c3[nH]2)CC1 [Example I-1140] has an IC50 of under 100 nM.
Molecule COc1cc(F)cnc1N1CCN(C(=O)c2cc3c(C4=CCC(C#N)CC4)cc(C4=CCCN(C(=O)CCn5ccnn5)C4)c(F)c3[nH]2)CC1 (centres unmarked) [Example I-1141] has an IC50 of under 100 nM.
Molecule COc1cc(F)cnc1N1CCN(C(=O)c2cc3c(-c4ccc(C(C)(C)C#N)cc4)cc(C4=CCCN(C(=O)CCn5ccnn5)C4)c(F)c3[nH]2)CC1 [Example I-1142] has an IC50 of under 100 nM.
With COc1cc(F)cnc1N1CCN(C(=O)c2cc3c(-c4ccc(C(=O)N5CCCC5)cc4F)cc(C4=CCCN(C(=O)CCn5ccnn5)C4)c(F)c3[nH]2)CC1 [Example I-1143] the IC50 was under 100 nM.
COc1cc(F)cnc1N1CCN(C(=O)c2cc3c(-c4ccc(C(=O)N5CCCC5)c(F)c4)cc(C4=CCCN(C(=O)CCn5ccnn5)C4)c(F)c3[nH]2)CC1 [Example I-1144] gave an IC50 of under 100 nM.
With COc1cc(F)cnc1N1CCN(C(=O)c2cc3c(-c4ccc(C(O)C(F)(F)F)cc4)cc(C4=CCCN(C(=O)CCn5ccnn5)C4)c(F)c3[nH]2)CC1 (centres unmarked) [Example I-1145] the IC50 was under 100 nM.
For COc1cc(F)cnc1N1CCN(C(=O)c2cc3c(-c4ccc(C5(O)CCC5)cc4)cc(C4=CCCN(C(=O)CCn5ccnn5)C4)c(F)c3[nH]2)CC1 [Example I-1146], the IC50 was under 100 nM.
For COCOc1ccc(-c2cc(C3=CCCN(C(=O)CCn4ccnn4)C3)c(F)c3[nH]c(C(=O)N4CCN(c5ncc(F)cc5OC)CC4)cc23)cc1 [Example I-1147], the IC50 was under 100 nM.
Molecule COc1cc(F)cnc1N1CCN(C(=O)c2cc3c(-c4ccc5c(c4)OCCCO5)cc(C4=CCCN(C(=O)CCn5ccnn5)C4)c(F)c3[nH]2)CC1 [Example I-1148] has an IC50 of under 100 nM.
COc1ccncc1-c1cc(C2=CCCN(C(=O)CCn3ccnn3)C2)c(F)c2[nH]c(C(=O)N3CCN(C4CCCCC4)CC3)cc12 [Example I-1149] was tested, and the IC50 was under 100 nM.
COc1cccnc1N1CCN(C(=O)c2cc3c(C4=CCN(C)CC4C)cc(C4=CCCN(C(=O)CCn5ccnn5)C4)c(F)c3[nH]2)CC1 (centres unmarked) [Example I-1150] gave an IC50 of under 100 nM.
For COc1cc(F)cnc1N1CCN(C(=O)c2cc3c(-c4cnn(C5CC5)c4)cc(C4=CCCN(C(=O)CCn5ccnn5)C4)c(F)c3[nH]2)CC1 [Example I-1151], the IC50 was under 100 nM.
COc1cc(F)cnc1N1CCN(C(=O)c2cc3c(-c4ccc(-c5cccnc5)cc4)cc(C4=CCCN(C(=O)CCn5ccnn5)C4)c(F)c3[nH]2)CC1 [Example I-1152] gave an IC50 of under 100 nM.

From patent US20250214977A1, “STAT6 INHIBITORS AND USES THEREOF” (Kymera Therapeutics, Inc., priority 2024, published 2025)
